The other results are listed elsewhere or left out. At the low end of the ranking the order means little.
What follows are sequences tested against SIX1-Q177R homeodomain (UniProt Q15475) (assay: universal protein binding microarray). Settings: Universal all-10-mer PBM (8x60K, AMADID 030236), 300 nM GST-tagged protein, Alexa Fluor 488 anti-GST; buffer, salt, pH and temperature not stated; high values mean tight binding; most listed sequences are background and not binding sites; double strand, one strand shown.

Which binding signal does the source give for ACGTTACT here?
Its binding signal is -0.0152 E-score.

How did the binding signal turn out when ATTTCACC was run?
The binding signal was -0.0368 E-score.

For GCAGGAAC, which binding signal is on record?
The binding signal was -0.0527 E-score.

AAAGTGTC was tested. Which binding signal did it give?
The binding signal was 0.36 E-score.

With CCGTGAGC as the sequence, how does the binding signal read?
Its binding signal is -0.217 E-score.

How did the binding signal turn out when CCCTCAAG was run?
Its binding signal is 0.145 E-score.

With CCCGATAG as the sequence, how does the binding signal read?
The binding signal was 0.00661 E-score.

Which binding signal does the source give for CAGGGGCG here?
Its binding signal is 0.141 E-score.

How did the binding signal turn out when AGCTTCAA was run?
The binding signal was -0.0875 E-score.

Which binding signal does the source give for TCCACAGA here?
Its binding signal is -0.0469 E-score.

For GAGCGGAA, which binding signal is on record?
Its binding signal is -0.091 E-score.

With CCAGGGAA as the sequence, how does the binding signal read?
Its binding signal is -0.188 E-score.

How did the binding signal turn out when CGCCCGCA was run?
Its binding signal is 0.0818 E-score.

For AACGGGCT, which binding signal is on record?
Its binding signal is -0.203 E-score.

CCCAGTTA was tested. Which binding signal did it give?
Its binding signal is 0.117 E-score.

For AACGTTCT, which binding signal is on record?
Its binding signal is -0.254 E-score.

For ACCGGCCT, which binding signal is on record?
The binding signal was -0.177 E-score.

How did the binding signal turn out when CAAAGTAA was run?
The binding signal was -0.128 E-score.

For CTGGCCCC, which binding signal is on record?
The binding signal was -0.153 E-score.

CCGTCAAC was tested. Which binding signal did it give?
The binding signal was -0.206 E-score.

CCCCCCCA was tested. Which binding signal did it give?
The binding signal was 0.131 E-score.

For CCTAATTA, which binding signal is on record?
Its binding signal is 0.0243 E-score.

Which binding signal does the source give for AGGCGGGA here?
Its binding signal is -0.0564 E-score.

CGGATCTC was tested. Which binding signal did it give?
The binding signal was -0.118 E-score.

CGCCCTCC was tested. Which binding signal did it give?
The binding signal was 0.102 E-score.

With ACGGACGC as the sequence, how does the binding signal read?
The binding signal was -0.0357 E-score.

With TCGTCTAA as the sequence, how does the binding signal read?
Its binding signal is -0.148 E-score.

For GTGCAAAA, which binding signal is on record?
The binding signal was 0.107 E-score.

ACCTTGCA was tested. Which binding signal did it give?
The binding signal was -0.0329 E-score.

For GCCAAACA, which binding signal is on record?
The binding signal was 0.00728 E-score.

AGTCTATA was tested. Which binding signal did it give?
The binding signal was -0.124 E-score.

Which binding signal does the source give for TATAGCAA here?
Its binding signal is -0.114 E-score.

GTTGGTGA was tested. Which binding signal did it give?
The binding signal was 0.0205 E-score.

For ACAGGTAC, which binding signal is on record?
Its binding signal is 0.0087 E-score.

For ACTTAGAT, which binding signal is on record?
The binding signal was 0.0918 E-score.

For GTTGTCCA, which binding signal is on record?
The binding signal was -0.0292 E-score.

How did the binding signal turn out when GCCTCGAC was run?
The binding signal was 0.118 E-score.

With ATAACTTA as the sequence, how does the binding signal read?
Its binding signal is -0.0915 E-score.

With GGGAGAAC as the sequence, how does the binding signal read?
The binding signal was 0.0158 E-score.

Which binding signal does the source give for ACGTTGCA here?
Its binding signal is -0.0303 E-score.

AGCTTATC was tested. Which binding signal did it give?
The binding signal was -0.023 E-score.

How did the binding signal turn out when AGAGCGCA was run?
Its binding signal is -0.0692 E-score.

GCACTGCC was tested. Which binding signal did it give?
The binding signal was -0.129 E-score.

How did the binding signal turn out when ATACAAAG was run?
The binding signal was -0.197 E-score.

For CTACAGCC, which binding signal is on record?
Its binding signal is -0.213 E-score.

How did the binding signal turn out when ACGGCATC was run?
The binding signal was -0.00636 E-score.

For AAAGTTCC, which binding signal is on record?
Its binding signal is -0.334 E-score.

How did the binding signal turn out when ATGGAATA was run?
The binding signal was -0.176 E-score.

ACTATATC was tested. Which binding signal did it give?
Its binding signal is 0.178 E-score.

ATTCCGGG was tested. Which binding signal did it give?
Its binding signal is 0.113 E-score.

For ACGGCTCA, which binding signal is on record?
The binding signal was -0.0559 E-score.

GTACTCAC was tested. Which binding signal did it give?
Its binding signal is -0.0716 E-score.

Which binding signal does the source give for GGGATCAC here?
Its binding signal is 0.277 E-score.

For CGTACGGC, which binding signal is on record?
The binding signal was 0.0372 E-score.

AGACAAAC was tested. Which binding signal did it give?
Its binding signal is -0.159 E-score.

CGTAGGAC was tested. Which binding signal did it give?
The binding signal was 0.117 E-score.

Which binding signal does the source give for AAGACGCG here?
Its binding signal is -0.0665 E-score.

How did the binding signal turn out when AAAAATCT was run?
Its binding signal is -0.244 E-score.

With AAGTGCAC as the sequence, how does the binding signal read?
Its binding signal is 0.073 E-score.

How did the binding signal turn out when CGTTGTTC was run?
The binding signal was -0.24 E-score.

With AGTCGCCA as the sequence, how does the binding signal read?
The binding signal was -0.0635 E-score.

For AAAGGGCT, which binding signal is on record?
Its binding signal is -0.278 E-score.

AAGGACCC was tested. Which binding signal did it give?
Its binding signal is 0.0358 E-score.

GTATTGTA was tested. Which binding signal did it give?
Its binding signal is 0.089 E-score.

For ATGTATTC, which binding signal is on record?
Its binding signal is -0.0646 E-score.

ATGTCCCG was tested. Which binding signal did it give?
The binding signal was -0.178 E-score.

For AGGGTCTC, which binding signal is on record?
Its binding signal is -0.0215 E-score.

With CGAGGTTA as the sequence, how does the binding signal read?
Its binding signal is -0.119 E-score.

With AGAGCCAC as the sequence, how does the binding signal read?
Its binding signal is -0.173 E-score.

Which binding signal does the source give for AAATTATC here?
Its binding signal is -0.0868 E-score.

Which binding signal does the source give for CTACGAAG here?
The binding signal was -0.0627 E-score.

For AGCTACCT, which binding signal is on record?
Its binding signal is -0.173 E-score.

With CACGCATC as the sequence, how does the binding signal read?
The binding signal was 0.168 E-score.

How did the binding signal turn out when ACCCCTCT was run?
Its binding signal is 0.304 E-score.

With ACCGAAAA as the sequence, how does the binding signal read?
Its binding signal is -0.0806 E-score.

How did the binding signal turn out when ATGATTTA was run?
The binding signal was -0.0946 E-score.

ACAGAGAA was tested. Which binding signal did it give?
The binding signal was -0.248 E-score.

How did the binding signal turn out when CTTTGCAC was run?
The binding signal was 0.16 E-score.

Which binding signal does the source give for ACATCACT here?
Its binding signal is -0.0399 E-score.

GGCGAACA was tested. Which binding signal did it give?
Its binding signal is 0.198 E-score.

With ACCCGCTC as the sequence, how does the binding signal read?
Its binding signal is 0.227 E-score.

With CTTGGTCC as the sequence, how does the binding signal read?
Its binding signal is 0.0781 E-score.

With CTGTTGTC as the sequence, how does the binding signal read?
The binding signal was -0.0928 E-score.

How did the binding signal turn out when GAGGGTGC was run?
Its binding signal is 0.237 E-score.

How did the binding signal turn out when CTCAATCC was run?
The binding signal was -0.0885 E-score.

Which binding signal does the source give for AGGCATAT here?
Its binding signal is -0.219 E-score.

Which binding signal does the source give for TCCCTCGA here?
The binding signal was 0.101 E-score.

For ATGTAACA, which binding signal is on record?
Its binding signal is 0.272 E-score.

Which binding signal does the source give for TAATCGCA here?
The binding signal was -0.0859 E-score.

With ACATACGA as the sequence, how does the binding signal read?
The binding signal was -0.254 E-score.

CTGTGTCC was tested. Which binding signal did it give?
Its binding signal is 0.0691 E-score.

With CAAGCATC as the sequence, how does the binding signal read?
Its binding signal is -0.191 E-score.

How did the binding signal turn out when ATTTAGGG was run?
The binding signal was -0.0121 E-score.

With AACTGAAG as the sequence, how does the binding signal read?
The binding signal was -0.187 E-score.
